# Laboratory results as given in patent publication US20100260668A1 (published 2010).
# Target: T1, DLL4 (DLL ECD His tag, R&D 1506-D4-050) (UniProt Q9NR61 part only)
# T1 construct: extracellular domain; bought
# Assay: BIACORE (SPR), DVD-Ig against DLL4
Kd [nM],koff [s⁻¹],kon [M⁻¹ s⁻¹],Binder
0.288,8.19e-05,284000,"DVD487 (bispecific antibody, human IgG1, kappa, DVD-Ig; N-term; VD DLL4 (AB072), C-term; VD VEGF (AB014); HC linker short, LC linker short; 4'; 3'; also called DVD-Ig DVD487; DVD487H) heavy: EVQLQQSGPELVKPGASVKMSCKASGYTFTSYVINWVKQKPGQGLEWIGLINPYNDGTKYNEKFKVKATLTSDKSSSTAYMELSSLTSEDSAVYYCASYYYGSRYYFDYWGQGTTLTVSSASTKGPEVQLVESGGGLVQPGGSLRLSCAASGYTFTNYGMNWVRQAPGKGLEWVGWINTYTGEPTYAADFKRRFTFSLDTSKSTAYLQMNSLRAEDTAVYYCAKYPHYYGSSHWYFDVWGQGTLVTVSS[omitted - human IgG1 constant region] light: DIQMTQSSSYLSVSLGGRVTITCKASDHINNWLAWYQQKPGNAPRLLISGATSLETGVPSRFSGSGSGKDYTLSITSLQTEDVATYYCQQYWSIPLTFGAGTKLELKRTVAAPDIQMTQSPSSLSASVGDRVTITCSASQDISNYLNWYQQKPGKAPKVLIYFTSSLHSGVPSRFSGSGSGTDFTLTISSLQPEDFATYYCQQYSTVPWTFGQGTKVEIKRTVAAPSVFIFPPSDEQLKSGTASVVCLLNNFYPREAKVQWKVDNALQSGNSQESVTEQDSKDSTYSLSSTLTLSKADYEKHKVYACEVTHQGLSSPVTKSFNRGEC"
1.48,0.00176,1.19e+06,"DVD517 (bispecific antibody, human IgG1, kappa, lambda, DVD-Ig; N-term; VD DLL4 (AB073), C-term; VD VEGF (AB014); HC linker long, LC linker long; also called DVD-Ig DVD517; DVD517H) heavy: EVQLQQSGPELEKPGASVKISCKASGYSFTGYNMNWVKQSNGKSLEWIGNIDPYFGGTNYNQKFKGKATLTVDKSSSTAYMQLKSLTSEDSAVYYCARNYDYDGGCFDYWGQGTTLTVSSASTKGPSVFPLAPEVQLVESGGGLVQPGGSLRLSCAASGYTFTNYGMNWVRQAPGKGLEWVGWINTYTGEPTYAADFKRRFTFSLDTSKSTAYLQMNSLRAEDTAVYYCAKYPHYYGSSHWYFDVWGQGTLVTVSS[omitted - human IgG1 constant region] light: QAVVTQESALTTSPGETVTLTCRSSTGAVTTSNYANWVQEKPDHLFTGLIGGTNNRAPGVPARFSGSLIGDKAALTITGAQTEDEAIYFCALWYSNHWVFGGGTKLTVLGQPKAAPSVTLFPPDIQMTQSPSSLSASVGDRVTITCSASQDISNYLNWYQQKPGKAPKVLIYFTSSLHSGVPSRFSGSGSGTDFTLTISSLQPEDFATYYCQQYSTVPWTFGQGTKVEIKRTVAAPSVFIFPPSDEQLKSGTASVVCLLNNFYPREAKVQWKVDNALQSGNSQESVTEQDSKDSTYSLSSTLTLSKADYEKHKVYACEVTHQGLSSPVTKSFNRGEC"
0.515,7.27e-05,141000,"DVD469 (bispecific antibody, human IgG1, kappa, DVD-Ig; N-term; VD DLL4 (AB015), C-term; VD VEGF (AB014); HC linker long, LC linker long; also called DVD-Ig DVD469; DVD469H) heavy: EVQLVESGGGLVQPGGSLRLSCAASGFTFTDNWISWVRQAPGKGLEWVGYISPNSGFTYYADSVKGRFTISADTSKNTAYLQMNSLRAEDTAVYYCARDNFGGYFDYWGQGTLVTVSSASTKGPSVFPLAPEVQLVESGGGLVQPGGSLRLSCAASGYTFTNYGMNWVRQAPGKGLEWVGWINTYTGEPTYAADFKRRFTFSLDTSKSTAYLQMNSLRAEDTAVYYCAKYPHYYGSSHWYFDVWGQGTLVTVSS[omitted - human IgG1 constant region] light: DIQMTQSPSSLSASVGDRVTITCRASQDVSTAVAWYQQKPGKAPKLLIYSASFLYSGVPSRFSGSGSGTDFTLTISSLQPEDFATTYYCQQSYTGTVTFGQGTKVEIKRTVAAPSVFIFPPDIQMTQSPSSLSASVGDRVTITCSASQDISNYLNWYQQKPGKAPKVLIYFTSSLHSGVPSRFSGSGSGTDFTLTISSLQPEDFATYYCQQYSTVPWTFGQGTKVEIKRTVAAPSVFIFPPSDEQLKSGTASVVCLLNNFYPREAKVQWKVDNALQSGNSQESVTEQDSKDSTYSLSSTLTLSKADYEKHKVYACEVTHQGLSSPVTKSFNRGEC"
1.43,0.00173,1.21e+06,"DVD511 (bispecific antibody, human IgG1, kappa, DVD-Ig; N-term; VD DLL4 (AB073), C-term; VD VEGF (AB014); HC linker short, LC linker short; 3'; 4'; also called DVD-Ig DVD511; DVD511H) heavy: EVQLQQSGPELEKPGASVKISCKASGYSFTGYNMNWVKQSNGKSLEWIGNIDPYFGGTNYNQKFKGKATLTVDKSSSTAYMQLKSLTSEDSAVYYCARNYDYDGGCFDYWGQGTTLTVSSASTKGPEVQLVESGGGLVQPGGSLRLSCAASGYTFTNYGMNWVRQAPGKGLEWVGWINTYTGEPTYAADFKRRFTFSLDTSKSTAYLQMNSLRAEDTAVYYCAKYPHYYGSSHWYFDVWGQGTLVTVSS[omitted - human IgG1 constant region] light: QAVVTQESALTTSPGETVTLTCRSSTGAVTTSNYANWVQEKPDHLFTGLIGGTNNRAPGVPARFSGSLIGDKAALTITGAQTEDEAIYFCALWYSNHWVFGGGTKLTVLGQPKAAPDIQMTQSPSSLSASVGDRVTITCSASQDISNYLNWYQQKPGKAPKVLIYFTSSLHSGVPSRFSGSGSGTDFTLTISSLQPEDFATYYCQQYSTVPWTFGQGTKVEIKRTVAAPSVFIFPPSDEQLKSGTASVVCLLNNFYPREAKVQWKVDNALQSGNSQESVTEQDSKDSTYSLSSTLTLSKADYEKHKVYACEVTHQGLSSPVTKSFNRGEC"
1.8,0.00151,840000,"DVD529 (bispecific antibody, human IgG1, kappa, lambda, DVD-Ig; N-term; VD DLL4 (AB073), C-term; VD VEGF (AB014); HC linker short, LC linker long; also called DVD-Ig DVD529; DVD529H) heavy: EVQLQQSGPELEKPGASVKISCKASGYSFTGYNMNWVKQSNGKSLEWIGNIDPYFGGTNYNQKFKGKATLTVDKSSSTAYMQLKSLTSEDSAVYYCARNYDYDGGCFDYWGQGTTLTVSSASTKGPEVQLVESGGGLVQPGGSLRLSCAASGYTFTNYGMNWVRQAPGKGLEWVGWINTYTGEPTYAADFKRRFTFSLDTSKSTAYLQMNSLRAEDTAVYYCAKYPHYYGSSHWYFDVWGQGTLVTVSS[omitted - human IgG1 constant region] light: QAVVTQESALTTSPGETVTLTCRSSTGAVTTSNYANWVQEKPDHLFTGLIGGTNNRAPGVPARFSGSLIGDKAALTITGAQTEDEAIYFCALWYSNHWVFGGGTKLTVLGQPKAAPSVTLFPPDIQMTQSPSSLSASVGDRVTITCSASQDISNYLNWYQQKPGKAPKVLIYFTSSLHSGVPSRFSGSGSGTDFTLTISSLQPEDFATYYCQQYSTVPWTFGQGTKVEIKRTVAAPSVFIFPPSDEQLKSGTASVVCLLNNFYPREAKVQWKVDNALQSGNSQESVTEQDSKDSTYSLSSTLTLSKADYEKHKVYACEVTHQGLSSPVTKSFNRGEC"
1.93,0.00209,1.08e+06,"DVD523 (bispecific antibody, human IgG1, kappa, DVD-Ig; N-term; VD DLL4 (AB073), C-term; VD VEGF (AB014); HC linker long, LC linker short; also called DVD-Ig DVD523; DVD523H) heavy: EVQLQQSGPELEKPGASVKISCKASGYSFTGYNMNWVKQSNGKSLEWIGNIDPYFGGTNYNQKFKGKATLTVDKSSSTAYMQLKSLTSEDSAVYYCARNYDYDGGCFDYWGQGTTLTVSSASTKGPSVFPLAPEVQLVESGGGLVQPGGSLRLSCAASGYTFTNYGMNWVRQAPGKGLEWVGWINTYTGEPTYAADFKRRFTFSLDTSKSTAYLQMNSLRAEDTAVYYCAKYPHYYGSSHWYFDVWGQGTLVTVSS[omitted - human IgG1 constant region] light: QAVVTQESALTTSPGETVTLTCRSSTGAVTTSNYANWVQEKPDHLFTGLIGGTNNRAPGVPARFSGSLIGDKAALTITGAQTEDEAIYFCALWYSNHWVFGGGTKLTVLGQPKAAPDIQMTQSPSSLSASVGDRVTITCSASQDISNYLNWYQQKPGKAPKVLIYFTSSLHSGVPSRFSGSGSGTDFTLTISSLQPEDFATYYCQQYSTVPWTFGQGTKVEIKRTVAAPSVFIFPPSDEQLKSGTASVVCLLNNFYPREAKVQWKVDNALQSGNSQESVTEQDSKDSTYSLSSTLTLSKADYEKHKVYACEVTHQGLSSPVTKSFNRGEC"
0.216,0.000145,669000,"DVD044 (bispecific antibody, human IgG1, kappa, DVD-Ig; N-term; VD DLL4 (AB015), C-term; VD VEGF (AB014); HC linker short, LC linker short; also called DVD-Ig DVD044; DVD044H) heavy: EVQLVESGGGLVQPGGSLRLSCAASGFTFTDNWISWVRQAPGKGLEWVGYISPNSGFTYYADSVKGRFTISADTSKNTAYLQMNSLRAEDTAVYYCARDNFGGYFDYWGQGTLVTVSSASTKGPEVQLVESGGGLVQPGGSLRLSCAASGYTFTNYGMNWVRQAPGKGLEWVGWINTYTGEPTYAADFKRRFTFSLDTSKSTAYLQMNSLRAEDTAVYYCAKYPHYYGSSHWYFDVWGQGTLVTVSS[omitted - human IgG1 constant region] light: DIQMTQSPSSLSASVGDRVTITCRASQDVSTAVAWYQQKPGKAPKLLIYSASFLYSGVPSRFSGSGSGTDFTLTISSLQPEDFATTYYCQQSYTGTVTFGQGTKVEIKRTVAAPDIQMTQSPSSLSASVGDRVTITCSASQDISNYLNWYQQKPGKAPKVLIYFTSSLHSGVPSRFSGSGSGTDFTLTISSLQPEDFATYYCQQYSTVPWTFGQGTKVEIKRTVAAPSVFIFPPSDEQLKSGTASVVCLLNNFYPREAKVQWKVDNALQSGNSQESVTEQDSKDSTYSLSSTLTLSKADYEKHKVYACEVTHQGLSSPVTKSFNRGEC"
1.29,0.000241,187000,"DVD481 (bispecific antibody, human IgG1, kappa, DVD-Ig; N-term; VD DLL4 (AB015), C-term; VD VEGF (AB014); HC linker short, LC linker long; also called DVD-Ig DVD481; DVD481H) heavy: EVQLVESGGGLVQPGGSLRLSCAASGFTFTDNWISWVRQAPGKGLEWVGYISPNSGFTYYADSVKGRFTISADTSKNTAYLQMNSLRAEDTAVYYCARDNFGGYFDYWGQGTLVTVSSASTKGPEVQLVESGGGLVQPGGSLRLSCAASGYTFTNYGMNWVRQAPGKGLEWVGWINTYTGEPTYAADFKRRFTFSLDTSKSTAYLQMNSLRAEDTAVYYCAKYPHYYGSSHWYFDVWGQGTLVTVSS[omitted - human IgG1 constant region] light: DIQMTQSPSSLSASVGDRVTITCRASQDVSTAVAWYQQKPGKAPKLLIYSASFLYSGVPSRFSGSGSGTDFTLTISSLQPEDFATTYYCQQSYTGTVTFGQGTKVEIKRTVAAPSVFIFPPDIQMTQSPSSLSASVGDRVTITCSASQDISNYLNWYQQKPGKAPKVLIYFTSSLHSGVPSRFSGSGSGTDFTLTISSLQPEDFATYYCQQYSTVPWTFGQGTKVEIKRTVAAPSVFIFPPSDEQLKSGTASVVCLLNNFYPREAKVQWKVDNALQSGNSQESVTEQDSKDSTYSLSSTLTLSKADYEKHKVYACEVTHQGLSSPVTKSFNRGEC"
0.431,0.000195,452000,"DVD475 (bispecific antibody, human IgG1, kappa, DVD-Ig; N-term; VD DLL4 (AB015), C-term; VD VEGF (AB014); HC linker long, LC linker short; also called DVD-Ig DVD475; DVD475H) heavy: EVQLVESGGGLVQPGGSLRLSCAASGFTFTDNWISWVRQAPGKGLEWVGYISPNSGFTYYADSVKGRFTISADTSKNTAYLQMNSLRAEDTAVYYCARDNFGGYFDYWGQGTLVTVSSASTKGPSVFPLAPEVQLVESGGGLVQPGGSLRLSCAASGYTFTNYGMNWVRQAPGKGLEWVGWINTYTGEPTYAADFKRRFTFSLDTSKSTAYLQMNSLRAEDTAVYYCAKYPHYYGSSHWYFDVWGQGTLVTVSS[omitted - human IgG1 constant region] light: DIQMTQSPSSLSASVGDRVTITCRASQDVSTAVAWYQQKPGKAPKLLIYSASFLYSGVPSRFSGSGSGTDFTLTISSLQPEDFATTYYCQQSYTGTVTFGQGTKVEIKRTVAAPDIQMTQSPSSLSASVGDRVTITCSASQDISNYLNWYQQKPGKAPKVLIYFTSSLHSGVPSRFSGSGSGTDFTLTISSLQPEDFATYYCQQYSTVPWTFGQGTKVEIKRTVAAPSVFIFPPSDEQLKSGTASVVCLLNNFYPREAKVQWKVDNALQSGNSQESVTEQDSKDSTYSLSSTLTLSKADYEKHKVYACEVTHQGLSSPVTKSFNRGEC"
